According to patent US20260139047A1 (JIANGSU HENGRUI PHARMACEUTICALS, published 2026):
Blank lines part the entries; values can stand above or below the binder they belong to.

Assays:
[1] = target: T1, IL-2Rα (ILA-H52H9, Acrobiosystem) (UniProt P01589 22-213); experiment: Octet (BLI), fusion protein on Protein A sensor, IL-2Rα in solution
T1 construct: Bought soluble reagent
T1 sequence (looked up): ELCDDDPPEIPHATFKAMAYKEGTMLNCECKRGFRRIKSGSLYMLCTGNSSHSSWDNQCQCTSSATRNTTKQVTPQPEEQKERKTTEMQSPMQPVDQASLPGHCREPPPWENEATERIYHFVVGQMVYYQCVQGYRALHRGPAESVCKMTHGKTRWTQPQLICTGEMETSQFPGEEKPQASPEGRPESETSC

[2] = target: T2, IL-2Rβ (CD2-H5221, Acrobiosystem) (UniProt P14784 27-239); experiment: Octet (BLI), steady-state fit, fusion protein stationary, IL-2Rβ mobile
T2 construct: Bought soluble reagent
T2 sequence (looked up): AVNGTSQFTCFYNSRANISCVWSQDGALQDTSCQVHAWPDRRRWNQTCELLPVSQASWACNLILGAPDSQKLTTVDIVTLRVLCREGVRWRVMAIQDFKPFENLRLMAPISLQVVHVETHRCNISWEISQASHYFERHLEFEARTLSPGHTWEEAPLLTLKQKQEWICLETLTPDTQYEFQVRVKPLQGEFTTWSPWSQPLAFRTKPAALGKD

binding result [1]: no binding (tested: 100 nM-3.125 nM) | Kd [2]: 0.0011 pM
B1: D3-68-b (other)
heavy: QVQLVQSGPEVKKPGASVKVSCKASGYTFTSYGISWVRRAPGQGLEWMGWISAYNGNTNYAQKLQGRVTMTTDTSTSTAYMELRSLRSDDTAVYYCARDLQSPTYYYGSGVIDYWGQGTLVTVSS[human IgG1 constant region with changes not listed]
light: [about 150 residues not listed]GGGGSGGGGSGGGGSGGGGSGGGGSDIQLTQSPSTLSASVGDRVTISCRASRAVSPWLAWYQHRPGQAPKLLIYAASSLQSGVPSRFSGSGSGTDFTLTISSLQPEDFATYYCQQYRSYPFTFGPGTTVDIRRTVAAPSVFIFPPSDEQLKSGTASVVCLLNNFYPREAKVQWKVDNALQSGNSQESVTEQDSKDSTYSLSSTLTLSKADYEKHKVYACEVTHQGLSSPVTKSFNRGEC

binding result [1]: no binding (tested: 100 nM-3.125 nM)
B2: A3-21-a (other)
heavy: [about 150 residues not listed]GGGGSGGGGSGGGGSGGGGSGGGGSEVQLLESGGGLAQPGGSLRLSCAGSGFTFSSYAMSWVRQAPGKGLEWVSGITGTGYRTYYADSVKGRFTVSRDNSRNTVYLQMNSLRAEDTAVYYCVRESGHYYGWFDSWGQGTLVTVSS[human IgG1 constant region with changes not listed]
light: QSALTQPPSVSGAPGQRVTISCTGSSSNIGAGYNVHWYQQVPGTVPKLLIDGKGNRPSGVPDRFSGSKSGTSASLAITGLQAEDEADYYCQSYDYMLSGSVVFGRGTKLTVLGQPKANPTVTLFPPSSEELQANKATLVCLISDFYPGAVTVAWKADGSPVKAGVETTKPSKQSNNKYAASSYLSLTPEQWKSHRSYSCQVTHEGSTVEKTVAPTECS
